Experimental data reported in PubChem BioAssay AID504332 (National Center for Advancing Translational Sciences (NCATS), 2011).
The whole screen tested about 350,000 compounds, of which about 31,000 (8.9%) were called active. The shares of active, inactive and inconclusive entries below differ from those in the screen. Calls follow the shape of the dose curve; as a rule, active = well fitted inhibition curve with a large enough effect; inconclusive = small, poorly fitted or top-dose-only effect; inactive = no such curve, though single readings can be large or run the other way. Potencies beside an inconclusive call are fits to weak or partial responses and may not hold up.
% is scaled to controls: 0 for no effect and ±100 for the full control effect; potency is read from the fitted curve at half-maximal effect; tags tell the direction and shape of the fitted curve.
Also: nearly all actives have a fitted effect of over 75% in size.

The compounds below were run against Histone-lysine N-methyltransferase EHMT2 (Homo sapiens) (UniProt Q96KQ7) (assay: qHTS Assay for Inhibitors of Histone Lysine Methyltransferase G9a). Conditions: G9a H3K9 monomethylation, AlphaScreen, 2 h; activity, negative = inhibition: at 59 µM (top of the series) unless noted.
UniProt Q96KQ7, sequence (Q96KQ7 whole entry, looked up): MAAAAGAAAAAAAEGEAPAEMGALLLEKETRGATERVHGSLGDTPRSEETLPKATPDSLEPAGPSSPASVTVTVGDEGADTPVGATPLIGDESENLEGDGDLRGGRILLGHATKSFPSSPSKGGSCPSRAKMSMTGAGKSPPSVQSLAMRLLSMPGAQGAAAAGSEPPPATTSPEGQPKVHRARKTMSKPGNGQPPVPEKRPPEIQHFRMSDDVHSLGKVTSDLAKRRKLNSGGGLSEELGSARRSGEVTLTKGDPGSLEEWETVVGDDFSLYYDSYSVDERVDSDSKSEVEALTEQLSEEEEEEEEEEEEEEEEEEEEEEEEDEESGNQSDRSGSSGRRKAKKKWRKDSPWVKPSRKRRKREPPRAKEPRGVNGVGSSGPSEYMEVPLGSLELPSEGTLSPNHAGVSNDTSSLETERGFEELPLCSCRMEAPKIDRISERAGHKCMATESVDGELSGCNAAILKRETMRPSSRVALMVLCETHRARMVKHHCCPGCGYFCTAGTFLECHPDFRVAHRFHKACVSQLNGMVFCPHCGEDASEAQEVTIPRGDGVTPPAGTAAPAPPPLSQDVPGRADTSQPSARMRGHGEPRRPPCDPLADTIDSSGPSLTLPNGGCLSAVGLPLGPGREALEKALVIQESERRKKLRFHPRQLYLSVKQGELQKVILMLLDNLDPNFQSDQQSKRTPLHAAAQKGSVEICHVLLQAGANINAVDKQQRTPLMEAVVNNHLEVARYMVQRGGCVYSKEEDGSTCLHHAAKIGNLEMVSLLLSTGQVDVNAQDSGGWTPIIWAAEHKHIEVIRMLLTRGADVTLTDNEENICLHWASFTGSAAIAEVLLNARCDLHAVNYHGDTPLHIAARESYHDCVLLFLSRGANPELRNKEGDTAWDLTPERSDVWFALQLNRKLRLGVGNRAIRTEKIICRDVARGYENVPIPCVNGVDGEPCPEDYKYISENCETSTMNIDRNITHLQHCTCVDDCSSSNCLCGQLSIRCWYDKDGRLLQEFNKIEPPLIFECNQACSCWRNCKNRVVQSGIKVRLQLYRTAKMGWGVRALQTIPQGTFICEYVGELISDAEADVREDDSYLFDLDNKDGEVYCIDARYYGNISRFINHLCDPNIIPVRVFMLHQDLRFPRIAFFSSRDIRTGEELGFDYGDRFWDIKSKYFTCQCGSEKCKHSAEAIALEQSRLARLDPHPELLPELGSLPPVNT
How it was run: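 G9a (20 nM) was preincubated 15 min with compound, then reacted 2 h at room temperature with 500 nM biotin-H3K9 peptide and 20 µM SAM. Monomethyl-H3K9 detected by AlphaScreen using anti-H3K9me1 antibody.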
In the case of `O=C(/C=C/c1ccco1)NC(=S)Nc1ccc(N2CCOCC2)c(Cl)c1`, the Potency was inconclusive: 79.4 µM [inhibitor, single point].
For `COc1cccc(-c2cccc(NC(=O)C3CCN(Cc4ccon4)CC3)c2)c1`, the Potency was “inactive”.
In the case of `CCOc1ccc(OCC(=O)Nc2ccc(OC)cc2[N+](=O)[O-])cc1`, the Potency was inconclusive: 2.51 µM [inhibitor, partial curve].
For `CCOC(=O)c1sc(NC(=O)CN(CC)CC)c(C(=O)OCC)c1C`, the Potency was inconclusive: 100 µM [inhibitor, single point].
In the case of `Cc1ccc(NC(=O)c2ccccc2)cc1C`, the activity, negative = inhibition was inactive: -13.1% [at 2.33 µM].
`CC(C)Cn1cc(C(=O)N2CCN(c3ccccn3)CC2)c2c3ccccc3n(C)c2c1=O` was tested, and the Potency was inconclusive: 50.1 µM [inhibitor, partial curve, poor fit].
In the case of `CC(C)(C)C1CCC(=NOC(=O)c2ccc(F)cc2)CC1` (configuration not stated), the Potency was “inactive”.
In the case of `COc1ccc2nc(SCC(=O)N(C)C3CCCCC3)[nH]c2c1`, the Potency was “inactive”.
With `COc1ccc(OC)c(-c2csc(NC(=O)Cc3cccs3)n2)c1` the Potency was inconclusive: 89.1 µM [inhibitor, single point].
In the case of `CSc1ccc(/C=N/NC(=O)CN2CCN(Cc3ccccc3Cl)CC2)cc1`, the Potency was “inactive”.
With `COCCn1c(SCC(=O)c2ccc(F)cc2)nnc1C(C)C` the Potency was inconclusive: 3.55 µM [inhibitor, partial curve, poor fit].
For `COCCn1c(C)cc(O)c(C(c2cccc(F)c2)N2CCN(c3ccccc3)CC2)c1=O` (configuration not stated), the Potency was inconclusive: 31.6 µM [inhibitor, partial curve, poor fit].
In the case of `CCOc1ccc(OCC)c(-c2c(=O)n(OCc3ccc(C(C)(C)C)cc3)c3ccccc3[n+]2[O-])c1`, the Potency was inconclusive: 79.4 µM [inhibitor, single point].
For `Cc1ccc(Nc2nc(-c3ccc(O)c(O)c3)cs2)nc1`, the Potency was active: 15.8 µM.
For `CCn1ncc(Cl)c1C(=O)NC(=S)Nc1ccccc1Br`, the Potency was “inactive”.
With `COC(=O)C1=C(C)OC(N)=C(C#N)C1c1cc(C)sc1C` (configuration not stated) the Potency was “inactive”.
`CCc1cccc(OCCCCNCCO)c1` was tested, and the Potency was active: 10 µM.
With `C(=N\N1CCN(c2ccccn2)CC1)/c1cccc2ccccc12` the Potency was active: 39.8 µM.
For `COc1ccc(OCc2ccc(C(=O)NN)cc2)cc1`, the Potency was active: 44.7 µM.
In the case of `COc1ccc(Cl)cc1C(=O)OCC(=O)c1ccc[nH]1`, the Potency was “inactive”.
For `Cc1ccc(Cl)cc1NC(=S)N(CCN(C)C)Cc1cccs1`, the Potency was active: 39.8 µM.
With `CCC(=O)Nc1ccc(F)c(Cl)c1` the Potency was inconclusive: 44.7 µM [inhibitor, partial curve, poor fit].
